According to patent publication US20160152947A1 (BOARD OF REGENTS OF THE UNIVERSITY OF OKLAHOMA, published 2016):

How the values were obtained:
[1] = target: MBP-Th-RSPO4-1 Fu1-Fu2 chimera (MBP-Th-RSPO4.21-71-RSPO1.78-145-H6) (human); experiment: TR-FRET competition binding to LGR4 ECD
Procedure: (§1) HEK293T cells transfected with TOPFLASH firefly luciferase reporter and Renilla luciferase control plasmids were treated with the indicated concentrations of MBP-Th-RSPO Fu1-Fu2 proteins in 1:6 diluted Wnt3a conditioned media. […] (C) AlphaLISA® luminescent proximity assay (BMG Labtech GmbH, Ortenberg, Germany) for ZNRF3 ECD binding. The indicated concentrations of MBP—Th-RSPO Fu1-Fu2 proteins were incubated with 3 nM Biotin-ZNRF3 ECD. Donor and acceptor beads were at 20 μg/ml each. Data shown for panels A-C are representative of at least three independent experiments, each performed in duplicate. The error bars represent the S.E.M. of the experiment. (D, E, F) Vertical scatter plots showing the pECso, Eₘₐₓ, and pK₁ values obtained from replicate independent signaling and LGR4 binding experiments as in panels A and B. The mean values and error bars representing the S.E.M. of the replicates are denoted.
(§2) The LGR4 ECD binding abilities of the newly purified MBP-Th-RSPO Fu1-Fu2-H₆ proteins were examined in an in vitro LanthaScreen®TR-FRET competition-binding assay (Thermo Fisher Scientific Inc., Rockford, Ill.).

[2] = target: MBP-Th-RSPO2-4 Fu1-Fu2 chimera (MBP-Th-RSPO2.22-76-RSPO4.72-138-H6) (human); experiment: TR-FRET competition binding to LGR4 ECD
Procedure: as §1, §2

B1: MBP-Th-LGR4 LRR1-14 (MBP-Th-hLGR4.23-383-H6) (receptor)
chain: [about 200 residues skipped]SLVVLHLHNNKIRSLSQHCFDGLDNLETLDLNYNNLGEFPQAIKALPSLKELGFHSNSISVIPDGAFDGNPLLRTIHLYDNPLSFVGNSAFHNLSDLHSLVIRGASMVQQFPNLTGTVHLESLTLTGTKISSIPNNLCQEQKMLRTLDLSYNNIRDLPSFNGCHALEEISLQRNQIYQIKEGHHHHHH
notes: range […]; Produced in E. coli; Labeled with amine-reactive terbium chelate in the TR-FRET assay; unlabeled in the AlphaLISA ternary complex assay; also called MBP-Th-LGR4 ECD; LGR4 ECD; not shown: thrombin cut site (Th) linker
- binding result [1]: binds
- binding result [2]: binds
